Experimental findings from paper PMC9861830, “Hydroxylated Coumarin-Based Thiosemicarbazones as Dual Antityrosinase and Antioxidant Agents” (International Journal of Molecular Sciences, 2023) are described below.

A short description of this series: Potentiometric and spectrophotometric titrations (protonation constants, speciation). In kind it is physicochemical. The settings on record: 25 °C, NaCl 0.1 M; fifth line, printed L^3-+4H^+⇌H4L^2+. As for the experimental part: Potentiometric titrations were performed in a thermostated vessel at 25 °C in 0.1 M ionic strength (NaCl) using a Mettler-Toledo Seven Compact pH/Ion-meter and equipped with a Mettler-Toledo InLab Micro Pro combined glass electrode with an integrated temperature probe. The glass electrode was calibrated daily and checked using the GLEE software package. UV–visible (UV–Vis) measurements were carried out with an Agilent Cary 60 spectrophotometer using a 0.1 cm quartz cuvette. Protonation constants of the studied molecules were determined via spectrophotometric and potentiometric titrations. Solutions of ligands were prepared daily by dissolving a suitable amount of the compound in DMSO (concentration ≈ 12 mM) prior to the required dilution in 0.1 M NaCl (final DMSO content 1% V/V, concentration ≈ 1.2∙10^−4 M). Four HCl equivalents for T1, five for T2–4, and six for T5–6 were added before titrating with an NaOH standard solution. Potentiometric and spectrophotometric data were simultaneously analysed using the Hyperquad 2006 software package. Speciation diagrams were obtained using Hyss 2009 program with the spectrophotometric data. The number of linearly independent absorbing species was found by applying the eigenvalue analysis to the absorbance data matrix.

`C/C(=N\NC(N)=S)c1cc2cc(O)c(O)cc2oc1=O` [T5, (1E)-2-(1-(6,7-dihydroxy-2-oxo-2H-chromen-3-yl)ethylidene)hydrazine-1-carbothioamide]: the Logβ is 33.2 (1) and the pK is reported as 3.7.

For `C/C(=N\NC(N)=S)c1cc2ccc(O)c(O)c2oc1=O` [T6, (1E)-2-(1-(7,8-dihydroxy-2-oxo-2H-chromen-3-yl)ethylidene)hydrazine-1-carbothioamide], the Logβ is reported as 33.0 (1) and the pK turned out to be 3.5.
